From the supplement of paper PMC11417369
± gives the standard deviation of the averaged measurements. Some of the results follow.

System: PfAP2-LT AP2 domain (GST-tagged)
Experiment: gcPBM binding intensity (ln(normalized median fluorescence intensity)); higher = stronger DNA binding
Summary of the method: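 The highest Masliner-normalised natural-log median intensity across replicate spots of either probe orientation is reported as binding intensity. GST-tagged P. falciparum DNA-binding domains expressed in E. coli were applied for 1 h to an Agilent 4 × 180k array of primer-extended double-stranded 36-bp intergenic genomic probes plus negative controls, and bound protein was detected with Alexa488 anti-GST antibody and scanned at 488 nm.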

Sequence | gcPBM binding intensity (ln)
TTTTTTTTTTTTGAGTGTACAAGATTGTTGTTCCAA [XGTACX_site6120] | 8.51 ± 0.51
CATACATACAAACACACACACATATATATATATATA [CACACA_site43] | 10.16 ± 0.042
TTATATTATATATATATTATATATATGTATGCATAA [TGCATGCA_negctrl_site481] | 8.72 ± 0.2
GGTTTGAATTTTTAAGTGCATATAACATAAATGAAA | 8.4 ± 0.43
AGATAGCTATTAAAAAGTACAAAAAAATATATATAT [XGTACX_site6289] | 8.89 ± 0.46
ATAAATACAGATATTACACACTTCTTATTCTAAGAA [CACACA_site5640] | 8.65 ± 0.45
TATTTACAACAAATTTAATTATTTTTAACTTATAAA [GTGCAC_negctrl_site259] | 8.06 ± 0.49
TATACAGGAATATTTTTACACACTAATAATTATAAA [CACACA_site8477] | 8.73 ± 0.5
TATTTTATATAAAGGTGTACTTATACAAAAATATAT [XGTACX_site7435] | 8.54 ± 0.43
AAGTAATTTGTTGACACACACACACGCATACCTATA [CACACA_site7140] | 9.81 ± 0.2
TCCCAATTTCTATCCTGTACAGACATAAATATATAC [XGTACX_site5937] | 8.8 ± 0.35
ATAAATCCATGTAACTGTACTTTTTTTTTTTTTTTT [XGTACX_site7373] | 8.71 ± 0.35
ATAAAGATTAATAAAATAAAATTCCGCAAACATATA [CACACA_negctrl_site244] | 8.71 ± 0.38
TTTTGAAATTTTTGTGTTTTTCCTTTTTATTTTATA [CACACA_negctrl_site1740] | 8.53 ± 0.47
TTTTTTTTCTAAATTATATGAAAATATATGTTATGT [GTGCAC_negctrl_site85] | 8.46 ± 0.38
TACATAAACATTTATACACACATTATAAATACATAT [CACACA_site4386] | 9.03 ± 0.38
ATTTTCTATTTTATTTGTACGTAATTTAATTTTTTT [XGTACX_site3609] | 8.96 ± 0.53
ACAATTTTAAAATGAACACACATGTTTTTCTTACTT [CACACA_site1014] | 9.02 ± 0.52
GCTCCTTTTACCATCGCACACGATAAAAAAAAATAA [CACACA_site3255] | 8.7 ± 0.43
ACAAATACTAACAACGCATGTAAGCCTACAATAAAT [TGCATGCA_site551] | 9.1 ± 0.31
AATGTAATATAAATATGTACATATAAACTATATATA [XGTACX_site6871] | 8.95 ± 0.41
ATTATATATATATATATATATATATATATATTATAT [CACACA_negctrl_site234] | 9.17 ± 0.27
ACTTATGATTTATTTTGTACATATATACTATTCCTG [XGTACX_site5275] | 9.14 ± 0.52
GTTTTAAAACAAATATGTACACATAATATAGGAAAG [XGTACX_site1803] | 8.96 ± 0.43
